Measurements taken from PubChem BioAssay AID504832 (National Center for Advancing Translational Sciences (NCATS), 2011).
Among all 310,000 compounds or so, about 18,000 (5.8%) were called active. This list was built around the results that the source calls inconclusive (neither active nor inactive); the mix of calls is not that of the screen. Calls come from the whole dose curve; as a rule, active = well fitted inhibition curve with a large enough effect; inconclusive = small, poorly fitted or top-dose-only effect, or another doubt; inactive = no such curve, though single readings can be large or run the other way. Potencies of inconclusive entries are left out as doubtful fits.

test: Primary qHTS for delayed death inhibitors of the malarial parasite plastid, 48 hour incubation; settings: P. falciparum luciferase growth in erythrocytes; series mostly up to 28.7 µM; activity change, negative = inhibition: at the top concentration
Procedure, shortened: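 Parasite viability was followed by luminescence of a genomically integrated firefly luciferase. Cultures held 0.1% parasitemia at 2% hematocrit (final), incubated under 5% CO2 at 37 C.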
% is set by controls: 0 for no effect and ±100 for the full control effect; potency is the fitted concentration of half-maximal effect; tags give direction and shape of the fitted curve.

SMILES	Potency	activity change, negative = inhibition
Clc1cccc(Cl)c1/C=N\Nc1nccs1	inconclusive [inhibitor, single point]	
COc1ccc(Cl)cc1NC(=O)CN(C)C(=O)Cc1ccc2c(c1)CCC2	inconclusive [inhibitor, single point]	
CCSc1nc2c(c(=O)[nH]c(=O)n2C)n1Cc1ccc(Cl)cc1	inconclusive [inhibitor, full curve]	
COc1ccc(OC)c(C2SCCN2S(=O)(=O)c2cccc(C(F)(F)F)c2)c1 (stereo not given)	inconclusive [inhibitor, single point]	
COP(=O)(OC)c1nc(-c2ccccc2)oc1NCc1ccccc1	inconclusive [inhibitor, partial curve, poor fit]	
CN(c1ccc(C(=O)NC2CCCC2)cc1)S(=O)(=O)c1ccc(Cl)cc1		inactive: -19.3%
CCOCCc1nn2c(=O)cc(CSCC(=O)Nc3ccccc3)nc2s1	inconclusive [inhibitor, partial curve, poor fit]	
O=C(Oc1ccnc2cc(Cl)ccc12)N1CCOCC1	inconclusive [inhibitor, single point]	
COc1ccc(/C=C/C(=O)CC(O)(c2ccccc2)C(F)(F)F)cc1 (stereo not given)	active: 13.1 µM	
O=C(NCC1CCCO1)c1cccc(Oc2c(Cl)cccc2[N+](=O)[O-])c1 (stereo not given)	inconclusive [inhibitor, single point]	
CN(C)c1ccc(/C=N/NC(=O)C2CC2c2ccccc2)cc1 (stereo not given)		inactive: -9.49%
Cc1cccc(CSCCNC(=O)Nc2ccccc2)c1	inconclusive [inhibitor, single point]	
CCN(CC)CC#CCOC(=O)[C@@](O)(c1ccccc1)C1CCCCC1	inconclusive [inhibitor, partial curve]	
CCCc1cc(C(=O)N2CCCC(Cc3ccccc3C)(C(=O)OCC)C2)no1 (stereo not given)	inconclusive [inhibitor, single point]	
CCc1ccc(CN(Cc2cccnc2)C(=O)/C=C/c2ccc(OC)cc2)cc1	active: 8.28 µM	
O=C(Cc1cc(=O)[nH][nH]1)N/N=C/c1ccccc1Cl		inactive: -21.8%
CNC(=O)Nc1cc(C(F)(F)F)cc(C(F)(F)F)c1		inactive: 137%
COCCNC(=S)N(CCc1c(C)[nH]c2ccc(C)cc12)Cc1cccnc1	inconclusive [inhibitor, partial curve]	
Cc1ccc(NC(=S)Nc2cccc3cnccc23)cc1	inconclusive [inhibitor, single point]	
Cc1ccc(C)c2sc(NC(=O)c3ccc(N4CCCCC4)c([N+](=O)[O-])c3)nc12	active: 2.62 µM	
COc1ccc(S(=O)(=O)N(CC(=O)NCC2CCCO2)c2ccc(F)cc2)cc1OC (stereo not given)	inconclusive [inhibitor, single point]	
COC(=O)c1ccc2c(=O)n(CC3CCCO3)c(SCC(=O)NCCc3ccc(S(N)(=O)=O)cc3)nc2c1 (stereo not given)		inactive: -7.18%
CCOc1ccc(OCCC(=O)Nc2ccc3c(c2)OCO3)cc1		inactive: -15%
COc1ccc(CN(Cc2nc3ccccc3c(=O)[nH]2)C(=O)NC2CCCCC2)cc1	inconclusive [inhibitor, single point]	

SMILES	Potency	activity change, negative = inhibition
CC(=C/c1ccccc1)/C=N/NC(=O)c1nnn(-c2nonc2N)c1CN1CCC(C)CC1	inconclusive [inhibitor, single point]	
Fc1ccc(-c2ccc(Nc3cccc(F)c3)nn2)cc1	inconclusive [inhibitor, single point]	
COc1ccccc1-c1nc(SCC(=O)NCC2CCCO2)c2c(=O)n(C)c(=O)n(C)c2n1 (stereo not given)	inconclusive [inhibitor, full curve]	
COc1ccc(OC)c(NC(=O)CCc2nnc3ccc(N4CCC(C)CC4)nn23)c1	inconclusive [inhibitor, single point]	
COc1ccccc1NNC(=O)c1cccnc1Oc1ccccc1		inactive: 1.82%
Cc1cc(NC(=O)CCC(=O)N(c2ccc(C)c(F)c2)C(C(=O)NC2CCCC2)c2ccco2)no1 (stereo not given)	inconclusive [inhibitor, single point]	
Cn1c(=O)c2cc(S(=O)(=O)Nc3cc(C(=O)O)cc(C(=O)O)c3)ccc2n(C)c1=O		inactive: 42.6%
CN(CC(=O)Nc1ccc(F)cc1)C(=O)c1ccccc1OCc1ccc(F)cc1	inconclusive [inhibitor, full curve, poor fit]	
COc1cccc(C(=O)Nc2cc3c(cc2N2CCCC2)n(C)c(=O)n3C)c1		inactive: -2.79%
C=CC(=O)OCCOCCOCCOCCOC(=O)C=C	inconclusive [inhibitor, partial curve]	
CNC(=S)N(CCc1c(C)[nH]c2ccc(Cl)cc12)Cc1cc(OC)c(OC)c(OC)c1	inconclusive [inhibitor, partial curve, poor fit]	
CCOc1ccc(CN(CCC#N)C(=S)NC(=O)c2ccccc2)cc1	inconclusive [inhibitor, partial curve]	
COc1cccc(C(=O)Nc2ccc(S(=O)(=O)N3CCN(C)CC3)cc2)c1		inactive: -7.39%
O=C(c1ccc(F)cc1)C(CN1CCOCC1)c1ccccc1 (stereo not given)	inconclusive [inhibitor, single point]	
O=C(CCCN1C(=O)c2cccnc2C1=O)Nc1ccc(F)cc1Cl		inactive: 10%
O=C(NCCc1ccc(C(F)(F)F)cc1)C1CCC(=O)N(C2CC2)C1 (stereo not given)		inactive: -4.55%
CC(C)=CCN1CCC(n2nccc2NC(=O)c2ccccc2Cl)CC1	inconclusive [inhibitor, partial curve, poor fit]	
CCN(CC)S(=O)(=O)c1cccc(C(=O)Nc2ccc(S(=O)(=O)NC3=NCCCCC3)cc2)c1	inconclusive [inhibitor, partial curve]	
Cc1cc(C(=O)NN=C2CCCCC2)c2ccccc2n1		inactive: 8.24%
COc1ccc(CC(NC(C)=O)C(=O)NC2CCN(C(=O)C3CCCCC3)CC2)c(OC)c1 (stereo not given)		inactive: 11.8%
COc1ccc(-c2cc(Cl)cc3c(=O)c4ccccc4n(C)c23)cc1F		inactive: 32.8%
COc1ccc(NC(=O)CSCC(=O)N2CCN(c3cccc(C(F)(F)F)c3)CC2)cc1	inconclusive [inhibitor, single point]	
Cc1cc(NC(=O)COc2cccc([N+](=O)[O-])c2)no1	active: 1.65 µM	
CSCc1nnc(NC(=O)c2ccc(S(=O)(=O)N(C)C)cc2)o1	inconclusive [inhibitor, partial curve]	

SMILES	Potency	activity change, negative = inhibition
CCC(=O)Nc1ccc2c(c1)OCCO2	inconclusive [inhibitor, full curve, poor fit]	
O=C(OC(C(=O)NCc1ccco1)c1ccc(Cl)cc1)c1cccs1 (stereo not given)		inactive: 8.84%
CCN/N=C(\Cc1nc2ccccc2[nH]1)c1ccccc1	active: 10.4 µM	
CC(C)CC(=O)Nc1ccc(-c2cn3cccnc3n2)cc1		inactive: 39.2%
O=C(NCC(c1cccs1)N1CCOCC1)c1ccccc1NS(=O)(=O)c1cccc([N+](=O)[O-])c1 (stereo not given)	inconclusive [inhibitor, single point]	
COc1ccc(CNc2cc(NCCCO)c([N+](=O)[O-])c3nonc23)cc1		inactive: -21%
CC(C)(O)c1cc2ccc(C#Cc3ccsc3)cc2c(=O)o1		inactive: 25.2%
CCc1ccc2[nH]c(=O)c(CN(CCN(CC)CC)C(=O)Nc3ccccc3OC)cc2c1	active: 14.7 µM	
CCOC(=O)c1ccc(-n2c(C)nc3ccc(Br)cc3c2=O)cc1	inconclusive [inhibitor, single point]	
COc1ccc(/C(CC2(O)C(=O)Nc3ccccc32)=N\O)cc1 (stereo not given)	inconclusive [inhibitor, single point]	
CC(=O)Nc1ccc(NS(=O)(=O)c2cc(-c3n[nH]c(=O)c4ccccc34)ccc2C)cc1	inconclusive [inhibitor, single point]	
C=CC[n+]1c(-c2ccc(C)cc2)csc1NNC(=O)Nc1ccccc1	active: 11.7 µM	
Cc1ccc(-n2nc3c(=O)n(CCCC(=O)NCCc4ccccc4)nc(C)c3c2C)cc1	inconclusive [inhibitor, partial curve]	
O=C1CS(=O)(=O)c2ccccc2N1		inactive: 1.1%
CCOC(=O)C1(Cc2cccc(OC)c2)CCN(Cc2cccc3c2OCO3)CC1	inconclusive [inhibitor, single point]	
CS(=O)(=O)c1ccc(C(=O)Nc2ccc(N3CCCC3)cc2)c(Cl)c1	inconclusive [inhibitor, partial curve]	
C[C@H]1CN=C(N(C)C)N1CCc1cccc(F)c1	inconclusive [inhibitor, full curve, poor fit]	
Cc1ccc2cc(CCNC(=O)C(=O)c3c(C)[nH]c4ccccc34)c(=O)[nH]c2c1	inconclusive [inhibitor, partial curve, poor fit]	
CN(C)S(=O)(=O)n1cc(/C=C(\NC(=O)c2ccccc2)C(=O)NCCCN2CCOCC2)c2ccccc21	inconclusive [inhibitor, partial curve]	
CCOC(=O)C1=C(C)NC(c2cccs2)C(=O)N1 (stereo not given)	inconclusive [inhibitor, partial curve, poor fit]	
CCOc1cccc2sc(N3CCN(C(=O)c4ccc5ncsc5c4)CC3)nc12	inconclusive [inhibitor, single point]	
COc1ccc(OC)c(S(=O)(=O)Nc2cc3c(cc2N2CCCC2)n(C)c(=O)c(=O)n3C)c1	inconclusive [inhibitor, partial curve, poor fit]	
